Reference: PubChem BioAssay AID686978 (National Center for Advancing Translational Sciences (NCATS), 2013)
About 64,000 (15%) of roughly 420,000 compounds were called active. The inconclusive results got no clear call from the source; some entries with a clear call stand among them for comparison. Calls follow the shape of the dose curve; as a rule, active = well fitted inhibition curve with a large enough effect; inconclusive = small, poorly fitted or top-dose-only effect; inactive = flat fitted curve, though single readings scatter. Potencies of inconclusive entries are left out as doubtful fits.

Assay: qHTS for Inhibitors of human tyrosyl-DNA phosphodiesterase 1 (TDP1): qHTS in cells in absence of CPT; also: nearly all actives have a fitted effect of over 55% in size
Conditions: DT40 Tdp1-/- hTDP1 cells, no CPT, ATP luminescence, 48 h; activity change, negative = growth inhibition: at 46.2 µM (top of the series) unless noted
Method in brief: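 Growth kinetics read by CellTiter-Glo luminescence after ≥48 hr at 37 °C. Cells: DT40 Tdp1-/- stably carrying human TDP1, 400 per well, compound exposure in the absence of CPT (DMSO vehicle).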
% is scaled to controls: 0 for no effect and ±100 for the full control effect; potency is read from the fitted curve at half-maximal effect; tags tell the direction and shape of the fitted curve.

Row | Structure (SMILES) | Potency | activity change, negative = growth inhibition
1 | CCCc1cc(-c2[nH]ncc2-c2ccc3c(c2)OCCCO3)c(O)cc1O | inconclusive [inhibitor, partial curve] | 
2 | CCc1ccc(CNC(=O)c2ccc3c(c2)nc2n3CCC(C)C2)cc1 (stereo not drawn) |  | inconclusive: -31.2% [inhibitor]
3 | CC(C)=CCCC1(C)C=Cc2c(ccc3c2[nH]c2cc(O)c(C)cc23)O1 (stereo not drawn) | active: 16.4 µM | 
4 | O=C(CN1CCN(C(=O)c2ccc(-c3nc4ccccc4s3)o2)CC1)Nc1ccccc1Cl | inconclusive [inhibitor, single point] | 
5 | COc1ccc(-c2onc(C)c2C)cc1S(=O)(=O)NCc1ccco1 | inconclusive [inhibitor, single point] | 
6 | O=C(O)c1ccc(C2Nc3ccccc3C(=O)N2Cc2ccccc2)cc1 (stereo not drawn) |  | inactive: -5.95%
7 | O=C(CSc1nnc(-c2cccnc2)n1CCN1CCCCC1)Nc1cccc(Cl)c1 | inconclusive [inhibitor, single point] | 
8 | COc1ccc(CNS(=O)(=O)c2ccc3c(c2)N(C(C)=O)CC(C)S3)cc1 (stereo not drawn) | active: 9.2 µM | 
9 | CCOc1ccc(C(=O)/C=C/c2ccc(SC)cc2)cc1 | inconclusive [inhibitor, single point] | 
10 | COCC(=O)N1CCC2(CCCN(Cc3nccs3)C2)CC1 |  | inactive: -5.17%
11 | CCOC(=O)c1ccc2ncc(C(=O)OCC)c(NCCN(C)C)c2c1 |  | inactive: -16.4%
12 | CCOc1ccc(C(=O)NCc2ccc3c(c2)CCN3C(=O)c2ccccc2)cc1 | active: 16.4 µM | 
13 | Cc1ccc(Cl)c(OCCCCN2CCC(C)CC2)c1 |  | inactive: 9.58%
14 | CN=CC1=C(O)c2ccccc2C1=O |  | inactive: 10.7%
15 | Cn1c(=O)n(C)c2cc([N+](=O)[O-])c(N3CCN(S(=O)(=O)c4ccc(C(C)(C)C)cc4)CC3)cc21 | inconclusive [inhibitor, single point] | 
16 | Cc1nc2ccc(NC(=O)NCCCO)cc2s1 |  | inactive: -12.1%
17 | Cc1ccc(CN2CCCC(C(=O)N3CCCC3)C2)cc1 (stereo not drawn) |  | inactive: -9.17%
18 | O=C(NCCCN1CCOCC1)c1cc(-c2ccc(F)cc2)nc2ccccc12 |  | inactive: -26.3%
19 | CSc1ccc(CN(C)CC(=O)Nc2ccc(C)cc2Br)cc1 | inconclusive [inhibitor, partial curve] | 
20 | O=C(Oc1ccccc1)N1CCC2(CC1)CCN(c1ccccc1)CC2 | active: 18.4 µM | 
21 | CCOc1cc2[nH]c(=S)n(CCCN3CCOCC3)c(=O)c2cc1OCC | inconclusive [inhibitor, single point] | 
22 | COc1ccc(C)cc1NC(=O)CN(c1ccccc1)S(=O)(=O)N(C)C |  | inactive: -27.5%
23 | CCCCc1nn2c(=O)cc(COC(=O)COc3ccc(C)cc3)nc2s1 |  | inactive: 3.48%
24 | Nc1ccc(N2CCCCC2)c(S(=O)(=O)Nc2ccccc2Cl)c1 |  | inactive: -22.2%
25 | CC1=C(C(=O)Nc2ccc(C)cc2C)C(c2ccc(O)cc2)n2nnnc2N1 (stereo not drawn) | inconclusive [inhibitor, partial curve] | 

Row | Structure (SMILES) | Potency | activity change, negative = growth inhibition
26 | Cc1ccc(N2C(=O)N(CC(=O)NCc3ccccc3Cl)C(=O)C2C)cc1 (stereo not drawn) | inconclusive [inhibitor, partial curve, poor fit] | 
27 | NC(=O)c1cc2ccccc2o/c1=N/NC(=O)c1cccc(F)c1 | inconclusive [inhibitor, partial curve] | 
28 | CCc1ccc(NC(=O)CSC2=Nc3ccccc3C3=NC(CCC(=O)NCCc4ccccc4)C(=O)N23)cc1 (stereo not drawn) | inconclusive [inhibitor, single point] | 
29 | O=C(CC1C(=O)NCCN1Cc1ccc(F)cc1)NCCN1CCCc2ccccc21 (stereo not drawn) | inconclusive [inhibitor, single point] | 
30 | COc1ccc(/C=C\c2onc(C)c2S(=O)(=O)N2CCC(C(=O)Nc3ccc(C)cc3C)CC2)cc1 | inconclusive [inhibitor, partial curve] | 
31 | O=[N+]([O-])c1cc(/C=N/N2CCCCC2)ccc1Cl | inconclusive [inhibitor, partial curve] | 
32 | CC1CCN(c2ncnc3c2cnn3-c2ccccc2)CC1 | inconclusive [inhibitor, single point] | 
33 | Cn1c(C(=O)O)c(S(=O)(=O)c2ccc(Cl)cc2)c2ccccc21 |  | inactive: 25%
34 | CCc1nc2ccc(C(=O)NCc3ccccc3OC)cn2c1N(C)C(=O)Cc1ccccc1 | inconclusive [inhibitor, single point] | 
35 | O=C(c1ccco1)N1CCN(c2ncnc3c2[nH]c2ccc(Br)cc23)CC1 | active: 23.1 µM | 
36 | CCn1c(=O)c(C(=O)CN(C)CC(=O)Nc2cccc(F)c2)c(N)n(Cc2ccccc2)c1=O | inconclusive [inhibitor, single point] | 
37 | Cc1cc(NCC2CCCO2)n2c(nc3ccccc32)c1C#N (stereo not drawn) | inconclusive [inhibitor, single point] | 
38 | CCN(CC)S(=O)(=O)c1ccc(C(=O)/C=C/c2ccc(-c3ccc([N+](=O)[O-])cc3)o2)cc1 | active: 6.51 µM | 
39 | COc1cc(C(=O)OCC(=O)N2c3ccccc3NC(=O)C2(C)C)ccc1OCC(C)C | inconclusive [inhibitor, single point] | 
40 | CCC(=O)N1CCc2cc(S(=O)(=O)NC(CC(C)C)C(=O)Nc3cc(C)ccc3OC)ccc21 (stereo not drawn) | inconclusive [inhibitor, single point] | 
41 | CCNC(=S)Nc1cc(OCC)c(NC(=O)c2ccco2)cc1OCC | inconclusive [inhibitor, partial curve] | 
42 | O=S(=O)(c1ccc2[nH]c3c(c2c1)CCCC3)N1CCCCC1 | active: 23.1 µM | 
43 | O=S(=O)(c1ccc(N2CCC(c3ccc(Cl)cc3)=N2)cc1)N(CCO)CCO | inconclusive [inhibitor, single point] | 
44 | Cc1csc(=O)n1CC(=O)OCC(=O)Nc1cc(Cl)ccc1[N+](=O)[O-] |  | inactive: -24.6%
45 | CCOc1ccccc1N(C(=O)Nc1ccc(Cl)cc1)C1=NCCS1 | inconclusive [inhibitor, partial curve, poor fit] | 
46 | Cc1cc(C)cc(N(CC(=O)NCCSc2ccccn2)S(=O)(=O)c2ccccc2)c1 | active: 25.9 µM | 
47 | CCn1c(=O)c2cc(C(=O)N3CCOCC3)sc2c2ccccc21 | inconclusive [inhibitor, single point] | 
48 | O=C(Nc1ccc(F)cc1Cl)n1ncc2cc(Cl)ccc21 | inconclusive [inhibitor, single point] | 
49 | OC[C@H]1NC[C@@H](O)[C@@H](O)[C@H]1O |  | inactive: -14.1%
50 | COc1ccc(/C=N/n2cnnc2)cc1Cn1nc(C)c([N+](=O)[O-])c1C | inconclusive [inhibitor, single point] | 

Row | Structure (SMILES) | Potency | activity change, negative = growth inhibition
51 | Nc1nc(Nc2ccc(Cl)cc2)nc(NCc2ccco2)c1[N+](=O)[O-] | inconclusive [inhibitor, single point] | 
52 | CC1CCN(c2ccc([N+](=O)[O-])c(SCCO)c2)CC1 | active: 23.1 µM | 
53 | CN1CC(c2ccccc2Cl)C2(COc3ccccc3C2=O)C12C(=O)Nc1ccccc12 (stereo not drawn) | inconclusive [inhibitor, single point] | 
54 | COc1ccc(NC(=O)N(C)C[C@@H]2Oc3cc(Br)ccc3S(=O)(=O)N([C@H](C)CO)C[C@H]2C)cc1 |  | inactive: -20.3%
55 | O=C(/C=C/c1ccc(Br)o1)NCc1ccccc1 |  | inactive: -24.6%
56 | Cc1cccc(NC(=O)c2cnn(-c3ccc(F)cc3)c2C2CCNCC2)c1C |  | inactive: -27.2%
57 | CCCCCCCCOC(=O)c1c(CSC(=N)N)n(C)c2cc(Br)c(OC(C)=O)cc12 | active: 7.31 µM | 
58 | CCn1c(CN2CCC(C)CC2)nc2cc(S(=O)(=O)N3CCCCC3)ccc21 | active: 13 µM | 
59 | CC(C)(C)OC(=O)N1CCC[C@H]1C(=O)N1CCC[C@H]1C(=O)NCc1ccncc1 |  | inactive: -11.4%
60 | O=C(O)CCCCCCCCc1cn(CC2CCCCC2)nn1 | inactive | 
61 | CC1(C)Cc2ccccc2-c2nnc(-c3ccccn3)n21 |  | inactive: -10.8%
62 | CCS(=O)(=O)c1ncc(N(Cc2ccco2)Cc2sccc2C)c(C(=O)Nc2ccc(C)cc2C)n1 | inconclusive [inhibitor, single point] | 
63 | COC(=O)CSCC(=O)Nc1cc2c(cc1C(C)=O)OCO2 |  | inconclusive: -32% [inhibitor]
64 | COc1ccc(C2/C=C\CN(C(=O)C3CCCC3)[C@H](Cc3ccccc3)C(=O)N2Cc2ccc(F)cc2)cc1 (stereo partly drawn) | inconclusive [inhibitor, single point] | 
65 | CC(C)CN(C(=O)CN1CCc2ccccc21)c1c(N)n(CC(C)C)c(=O)[nH]c1=O |  | inactive: -3.98%
66 | Nc1nc(-c2ccc(-n3nncc3-c3ccco3)cc2)cs1 | inconclusive [inhibitor, single point] | 
67 | C[C@]12CCC(=O)C=C1CCC1C2C(O)C[C@]2(C)C1CC[C@]2(O)C(=O)COC(=O)CCC(=O)O (stereo partly drawn) |  | inactive: -7.22%
68 | C=C(C)COc1ccc(-c2ncnc(C(F)(F)F)c2-c2ccc(OC)cc2)c(O)c1 | inconclusive [inhibitor, single point] | 
69 | CCC(C)c1ccccc1N1CC(C(=O)N(C)CC(=O)Nc2cccc(F)c2)CC1=O (stereo not drawn) |  | inactive: -2.38%
70 | CC(C)OC(=O)CSc1nc(Cc2cccs2)nc2ccccc12 |  | inconclusive: -30.2% [inhibitor]
71 | COc1cc(/C=C/c2nc3ccccc3c(=O)[nH]2)cc(Cl)c1O |  | inactive: -7.27%
72 | CCC1c2ccc(C)n2CCN1C(=O)Nc1ccccc1OC (stereo not drawn) | inconclusive [inhibitor, single point] | 
73 | CCN(CC(=O)Nc1c(F)cccc1F)C(=O)C1Cc2ccccc2CN1S(=O)(=O)CC (stereo not drawn) |  | inactive: -24.6%
